Results taken from article PMC6919601, “Identification of Plasmodium dipeptidyl aminopeptidase allosteric inhibitors by high throughput screening” (PLoS ONE, 2019).
Where “and” joins values, the source holds several entries; their conditions need not be identical. Equal entries are not always repeated. About 230 (0.21%) of roughly 110,000 compounds showed an effect of 50% or more. The list shows a part of the results.

target: DPAP1 (Plasmodium falciparum, UniProt Q8IIJ9); experiment: primary screen, percent inhibition; read by cleavage of a fluorogenic dipeptide substrate; higher = more effect of the substance; parameters: species or system P. falciparum D10 trophozoite lysates; single well
Sequence (Q8IIJ9 whole entry, looked up): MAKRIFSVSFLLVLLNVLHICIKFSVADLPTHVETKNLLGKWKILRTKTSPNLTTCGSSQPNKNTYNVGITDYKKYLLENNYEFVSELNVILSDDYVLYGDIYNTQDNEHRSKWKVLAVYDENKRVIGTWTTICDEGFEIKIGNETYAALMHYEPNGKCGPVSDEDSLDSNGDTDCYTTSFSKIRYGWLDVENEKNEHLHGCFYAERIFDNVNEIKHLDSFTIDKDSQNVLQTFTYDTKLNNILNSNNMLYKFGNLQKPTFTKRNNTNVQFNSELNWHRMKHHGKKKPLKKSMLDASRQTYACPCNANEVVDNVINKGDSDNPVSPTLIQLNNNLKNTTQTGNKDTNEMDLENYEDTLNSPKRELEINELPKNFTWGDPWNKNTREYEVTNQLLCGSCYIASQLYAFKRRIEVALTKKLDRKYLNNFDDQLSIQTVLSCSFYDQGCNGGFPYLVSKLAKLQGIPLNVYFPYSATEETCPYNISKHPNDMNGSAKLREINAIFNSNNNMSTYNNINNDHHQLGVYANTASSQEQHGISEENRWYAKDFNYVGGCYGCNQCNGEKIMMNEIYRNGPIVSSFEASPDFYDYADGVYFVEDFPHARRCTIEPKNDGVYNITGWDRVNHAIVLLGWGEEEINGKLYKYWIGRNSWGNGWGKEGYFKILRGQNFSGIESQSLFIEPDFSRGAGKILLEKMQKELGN
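Also: 30 min substrate incubation versus DMSO and 10 µM JCP410 controls.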

Row | Compound | % Inhibition @ 10 uM
1 | Cc1cccc(Nc2nc(-c3ccncc3)cs2)c1 | 0.345%
2 | N#CC1(c2ccc(OCc3ccccc3)cc2)CCC(=O)N1c1ccccc1 (stereo not drawn) | -3.83%
3 | CC(=O)NC(C)Cc1c(C(=O)O)[nH]c2ccccc12 (stereo not drawn) | 0.343%
4 | CCO/C(O)=C1\C(CC)=NC2=C(C(=O)CCC2)C1c1ccc(OC)cc1OC (stereo not drawn) | -6.74%
5 | COc1cccc(OC)c1C(=O)N1CCc2ccccc2C1 | -0.636%
6 | COc1ccc(/C=C2/N=C(c3cccc4ccccc34)OC2=O)cc1OC | 0.997%
7 | CCc1ccc(CNc2nc(N)n(-c3ccccc3)n2)cc1 | 1.83%
8 | Cc1nc2cc(-c3ccccc3)nn2c(C)c1CC(=O)O | 2.39%
9 | CCOc1ccc(CC(=O)NCc2ccccc2)cc1OCC | -0.473%
10 | Cc1ccnc(NS(=O)(=O)c2ccc(NC(=O)c3c(-c4ccccc4)noc3C)cc2)n1 | 5.39%
11 | C=CCOc1ccc(/C=C2\NC(=O)N(Cc3ccc(Cl)cc3)C2=O)cc1 | 3.8%
12 | Cc1ccc(-c2nc3cc(N)ccc3o2)cc1C | 0.35%
13 | COc1ccc(-c2cc(C3CC3)nc(N)c2C#N)cc1 | 4.51%
14 | CC1=CC(C)C2(COC(c3ccc[n+](C)c3)OC2)C(C)C1 (stereo not drawn) | -1.33%
15 | COc1ccc(OCC(=O)N2N=C(C)CC2(O)C(F)(F)F)cc1 (stereo not drawn) | -2.32%
16 | COC(C(=O)NCc1cccnc1)c1ccccc1 (stereo not drawn) | -1.02%
17 | CCS(=O)(=O)c1nc(S(=O)(=O)c2ccc(C)cc2)c(NCCCn2ccnc2)s1 | -2.25%
18 | CC(C)c1ccc(NC(=O)C2CCCCC2C(=O)O)cc1 (stereo not drawn) | -0.969%
19 | C(#Cc1ccccc1)CN1CCOCC1 | -3.32% and -1.97%
20 | CSCCC(Nc1ncnc2sc3c(c12)CCCC3)C(=O)O (stereo not drawn) | -2.7%
21 | CC(=O)N1CCN(CCCCCCC=C(C)C)CC1 | -3.57%
22 | Nc1cccc(-n2nncc2C23CC4CC(CC(C4)C2)C3)c1 | 2.05%
23 | Cc1cc(C)c(C#N)c(SCC(=O)Nc2ccc(S(=O)(=O)Nc3onc(C)c3C)cc2)n1 | -2.77%
24 | CC1=C(C(=O)Nc2ncccc2C)C(c2cccc(Cl)c2Cl)C2=C(O)CCCC2=N1 (stereo not drawn) | -6.36%
25 | CCOC(=O)C1=C(N)OC2=C(C(=O)CC(C)(C)C2)C1c1cc(CSc2nnnn2C)cs1 (stereo not drawn) | 1.84%

Row | Compound | % Inhibition @ 10 uM
26 | COc1cc2c(NCc3ccccc3)cc(O)c(CC(=O)Nc3ccccc3)c2cc1OC | 66.3%
27 | O=C(N[C@@H](Cc1ccc2ccccc2c1)C(=O)N[C@@H](CCc1ccccc1)C(=O)CO)C1CCNCC1 | -5.64%
28 | Cc1cc(Cl)ccc1OCC(=O)Nc1ccc(F)cc1 | 0.316%
29 | CC(C)(C)CC(=O)Nc1sc2c(c1C#N)CCCCC2 | 2.26%
30 | COc1ccc(-c2cn(/N=C/c3ccc(Cl)cc3Cl)c(N)n2)cc1 | -0.441%
31 | Cc1ccc(-n2cnc3cc(NC(=O)c4ccco4)ccc32)cc1 | 0.13%
32 | CC(NC(=O)c1ccccc1OCC(=O)N1CCc2ccccc21)c1ccccc1 (stereo not drawn) | 0.245%
33 | N#Cc1ccc(Oc2ccc(NC(=O)c3ccccc3Cl)cc2)cc1 | 4.54%
34 | Cc1ccc(C(O)c2coc3ccc(O)c(CN(C)C)c23)cc1 (stereo not drawn) | 0.774%
35 | CS(=O)(=O)N1CCCC(C(=O)NCCN2CCC(Cc3ccccc3)CC2)C1 (stereo not drawn) | 3.79%
36 | Cc1ccc(Cl)cc1NC(=O)Cn1cnc2c1c(=O)n(C)c(=O)n2C | -3.69%
37 | Cc1ccc(-n2ncc3c(NCCCOC(C)C)ncnc32)cc1C | 4.15%
38 | O=C(NCCc1ccccc1)C(F)(F)C(F)(F)C(F)(F)C(=O)NCCc1ccccc1 | -5.36%
39 | c1ccc(C2=NC(c3ccccc3)N=C(c3ccccc3)N2)cc1 | -7.01%
40 | O=S(=O)(c1cccc(C(F)(F)F)c1)N(CCCN1CCOCC1)Cc1cccs1 | 5.03%
41 | NC(=O)c1c(NC(=O)C2c3ccccc3Oc3ccccc32)sc2c1CCCC2 | -4.68%
42 | Cc1cc(C(=O)NCC(C)c2ccccc2)c2c(C)nn(-c3ccccc3Cl)c2n1 (stereo not drawn) | 5.32%
43 | Cc1cc(C)cc(NC(=O)C2CC(=O)N=C(N)S2)c1 (stereo not drawn) | -1.98%
44 | CCOC(=O)c1c(C)[nH]c(C)c1S(=O)(=O)Nc1cccnc1 | 3.93%
45 | Cc1cccc(-c2nc(CSCC(=O)NCCCN3CCOCC3)c(C)o2)c1 | 0.475%
46 | Cc1ccc(-n2c(CNCc3ccc(F)cc3)nc3ccccc3c2=O)cc1 | -4.72%
47 | CC(=O)c1nc(N2C(=O)CC(Cc3cc(C)cc(C)c3)C2=O)sc1C (stereo not drawn) | 5.3%
48 | Cc1ccc2onc(CNC(=O)NCc3ccc4c(c3)OCO4)c2c1 | 3.25%
49 | CO/C(O)=C1/C(C)=Nc2ncnn2C1c1ccc(C)o1 (stereo not drawn) | -2.9%
50 | Cc1c(CO)c2ccccc2n1Cc1ccc(Cl)cc1 | 6.78%

Row | Compound | % Inhibition @ 10 uM
51 | CCCn1c(NCc2nc3ccccc3n2C)nc2ccccc21 | -2.87%
52 | Cc1cc2c(cc3c(SCc4nc(-c5ccccc5)oc4C)nncn32)o1 | 0.335%
53 | CCCCCCNc1cc(C)oc(=O)c1C(C)=O | 4.57%
54 | Cn1c(=O)c(SC2CCCCC2)c(O)c2ccccc21 | -1.24%
55 | Cc1ccc(C)c(C(=O)N2CCC(c3nc(O)c4nnn(Cc5ccc(F)cc5F)c4n3)CC2)c1 | 14%
56 | O=C(NCCc1ccccc1)C1c2ccccc2C(=O)N1Cc1cccs1 (stereo not drawn) | 2.35%
57 | c1ccc(CN2CCC(N3CCN(Cc4ccncc4)CC3)CC2)cc1 | -9.2%
58 | CC(=O)N(c1ccccc1)C1CC(C)N(C(=O)C(C)C)c2ccccc21 (stereo not drawn) | 0.331%
59 | COc1ccc(Br)cc1C1C2=C(CCCC2=O)N(CC(=O)O)C2=C1C(=O)CCC2 | 1.89%
60 | Cn1c(=O)c2ccccc2n2c(CCC(=O)N3CCC(Cc4ccccc4)CC3)nnc12 | 4.16%
61 | C=CCNC(=O)CCCCn1c(=S)[nH]c2c([nH]c3ccc(OC)cc32)c1=O | 1.15%
62 | COCCNC(=O)c1ccc(-c2nc(CS(=O)c3ccccc3)c(C)o2)cc1 (stereo not drawn) | 4.12%
63 | COc1ccc(NC(=S)NC(=O)c2ccco2)cc1 | 4.63%
64 | Cc1ccc(C)c(S(=O)(=O)NC(=O)Cc2cccc3ccccc23)c1 | 4.22%
65 | CCOC(=O)N1CCN(c2c(NCC3CCN(Cc4cccc(C)c4)CC3)c(=O)c2=O)CC1 | -1.44%
66 | Cc1cc2c(c(=O)o1)C(c1ccc(Br)s1)C(C#N)=C(N)O2 (stereo not drawn) | -3.77%
67 | Cc1ccc(CS(=O)(=O)CCC(=O)N[C@@H](CCc2ccccc2)C(=O)c2nc3ccccc3o2)cc1 | -6.98%
68 | CCCCN(CC)CCNC(=O)Cn1ncc2c3ccccc3nc-2c1O | 1.43%
69 | COc1ccc(OC)c(NC(=O)COc2ccccc2)c1 | 3.8%
70 | CCCCN1C(=O)C2Cc3c([nH]c4ccccc34)C(c3cccc(F)c3)N2C1=O (stereo not drawn) | -0.0372%
71 | CCOC(=O)c1c(NC(=O)Nc2nnc(N3CCCCC3C)s2)sc2c1CCCC2 (stereo not drawn) | -4.68%
72 | CCOc1ccc(CNC(=O)C2=C(C)C(=O)OC23CCN(C(C)=O)CC3)cc1 | -6.13%
73 | O=C(NCCCCc1ccccc1)c1cccc(Br)c1 | -1.48%
74 | CC(C)Oc1ccc(C(=O)Nc2ccc(N3CCN(C(=O)c4ccccc4)CC3)cc2)cc1 | -2.74%
75 | CC1(C)Cc2c(sc3ncn4nc(-c5ccncc5)nc4c23)C(C)(C)N1 | 0.392%

Row | Compound | % Inhibition @ 10 uM
76 | COC(=O)c1sccc1NC(=O)c1ccc2c(Cl)c3c(nc2c1)CCCC3 | -0.352%
77 | O=C(NCC1COc2ccccc2O1)C(NS(=O)(=O)c1cccc2nsnc12)c1ccccc1 (stereo not drawn) | -1.43%
78 | CC1(C)CC(NS(=O)(=O)c2ccc(F)cc2)CC(C)(C)N1 | -10.1%
79 | CCOC(=O)C1=C(O)/C(=C\c2ccc(-c3cc(Cl)cc(Cl)c3)o2)N=C1C | -6.44%
80 | O=C(O)c1ccccc1C(=O)Nc1ccccc1C#Cc1ccc(Br)cc1 | 4.16%
81 | CCC(C)c1ccc(NC(=O)c2ccc(OC)c(OC)c2)cc1 (stereo not drawn) | -2.82%
82 | CN1CCN(c2ccc([N+](=O)[O-])c3cccnc23)CC1 | 2.5%
83 | CC(=O)c1ccc(N2CCN(CCC3=C(C)CCCC3(C)C)CC2)cc1 | 3.15%
84 | O=C(OC1CS(=O)(=O)CC1N(Cc1ccccc1)C(=O)Oc1ccccc1)c1ccccc1 (stereo not drawn) | -0.274%
85 | O=C(O)c1cc(O)nc(O)c1 | 2.62%
86 | COc1ccc(/C=C2\SC(Nc3ccc(F)cc3)=NC2=O)c(OC)c1OC | 0.931%
87 | COC(=O)[C@@]1(C)CC[C@]2(C)CC[C@]3(C)C(=CC(=O)C4[C@@]5(C)CCC(O)C(C)(C)C5CC[C@]43C)C2C1 (stereo partly drawn) | 0.51%
88 | Clc1ccc(N2CCN(Cc3cccc(Cl)c3)CC2)cc1 | 1.48%
89 | O=C(c1cc2ncc(Br)cn2n1)N1CCCCC1 | -5.11%
90 | COc1ccccc1CN1CCN(Cc2ccccc2Cl)CC1 | -2.32%
91 | CCCOc1ccc(N2CC(C(=O)Nc3ccc(Br)cc3C)CC2=O)cc1 (stereo not drawn) | 2.53%
92 | COC(=O)C1=NNC2C(=O)N(c3ccc(OC)cc3)C(=O)C12 (stereo not drawn) | 1.54%
93 | CC1(C)C(c2ccccc2)=NC(c2ccc(F)cc2)N1O (stereo not drawn) | -1.4%
94 | CC12CN(Cc3ccccc3)CC(C)(CN(Cc3ccccc3Br)C1)C2 | -4.03%
95 | Cc1c(C#N)sc2nc(-c3ccccc3)nc(/N=C/N(C)C)c12 | -0.597%
96 | Nc1nc(-c2ccccc2)nn1S(=O)(=O)c1ccccc1 | 1.25%
97 | COc1ccc(Cl)cc1/C=C1\SC(=S)NC1=O | 0.392%
98 | CC(C)c1c(O)cc(-c2cccnc2)n(-c2ccccc2)c1=O | 3.05%
99 | CCOC(=O)/C(=C\C=C\N1CCOCC1)C(C)=O | 7.24%
